{
  "source": "the RNAGym collection of RNA variant scans (doi:10.1093/nar/gkz1192)",
  "parents": {"B1": {"name": "CPEB3 Ribozyme (parent)", "chain": "UAACAGGGGGCCACAGCAGAAGCGUUCACGUCGCAGCCCCUGUCAGAUUCUGGUGAAUCUGCGAAUUCUGCUGUAUAUCUC"}},
  "note": "Read counts are not given, so values of variants with three or more changes are uncertain.",
  "data": [
    {"variants_of": "B1", "experiment": "self-cleavage, relative activity (ratio to wild type); higher = more cleavage; in vitro, sequencing", "summary_of_the_method": "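Relative activity compares each variant's cleaved/total read fraction with that of the unmutated ribozyme. To get these fractions, barcoded CPEB3 ribozyme libraries from rounds of error-prone PCR were transcribed with T7 RNA polymerase for 5 hours at 37°C and then given 15 min of DNase I treatment before EDTA was added. The RNAs were reverse transcribed with template switching and sequenced on Illumina, and DNA sequencing linked barcodes to variants. A minimum of 5 reads applied, and three batches were averaged.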", "values": [
      {"variant": "UAACUGGGGGCCACAGCAGAAGCGUUCGCGUCGCAGCCCCUGUUAGAUUCUGGCGAAUCUGCGAAUUCUGCUGUUUACCUC", "note": "[A5U A28G C44U U54C A75U U78C]", "self-cleavage": 0.13},
      {"variant": "UAACUGGGGGCCACAGCAGAAGCGUUCACGUCGCAGCCCCUGUCAGAUUCUGGUGUAUCUGCGAAUUCCGCCGUACAUCUC", "note": "[A5U A56U U69C U72C U76C]", "self-cleavage": 0.17},
      {"variant": "UAACUGGGGGCCACAGCAGAAGCGUUCACGUCGCAGCCCCUGUCAGAUUCUGGUGGAUCUGCGAAUUCUGCCGCAUAUCUC", "note": "[A5U A56G U72C U74C]", "self-cleavage": 1.08},
      {"variant": "UAACUGGGGGCCACAGCAGAAGCGUUCGCGUCGCAGCUCCUGUCAGAUUCUGGUGAAACUGCGAAUUCUGCUGUAUUUCUC", "note": "[A5U A28G C38U U58A A77U]", "self-cleavage": 0},
      {"variant": "UAACUGGGGGCCACAGCAGAAGCGUUCACGUCGCAGCCCCUGUCUGAUUCUGGUGUAUCUGCGGACUCUGCUGUACAUCUC", "note": "[A5U A45U A56U A64G U66C U76C]", "self-cleavage": 0.38},
      {"variant": "UAACUGGGGGCCACAGCAGAUGCGUUCACGUCGCAGCCCCUGUCAGACUCUGGUGAAUCUGCGAAUUCGGCUGUGUACCUC", "note": "[A5U A21U U48C U69G A75G U78C]", "self-cleavage": 0.06},
      {"variant": "UAACUGGGGGCCACAGCAGAAGCGUUCACGUCGCAGCCCCUGUCAGGUUCUGGUGAAUCUGCGAAUUCUGCUGUAUACCUC", "note": "[A5U A47G U78C]", "self-cleavage": 0.86},
      {"variant": "UAACUGGGGGCCACAGCAGAAGCGUUCACGUCGCAGCCCCUGUCGGAUUCUGCUGAAUCUCCGAAUUCAGCUGUAUAUCUC", "note": "[A5U A45G G53C G61C U69A]", "self-cleavage": 0.37},
      {"variant": "UAACUGGGGGCCACAGCAGAAGCGUUCACGUCGCAGCCCCUGUCAGGUUCUGGUGAAUCUGCGAGUUCUGCUGUAUAUCUC", "note": "[A5U A47G A65G]", "self-cleavage": 0.37},
      {"variant": "UAACUGGGGGCCACAGCAGAAGCGUUCACGUCGCUGCCCCAGUCAGAUUCUGGUGAAUCUGCAAAUUCUGCCGUAUAUCUC", "note": "[A5U A35U U41A G63A U72C]", "self-cleavage": 0.11},
      {"variant": "UAACUGGGGGCCACAGCAGAAGCGUUCGCGUCGCAGUCCCUGUCAGAUUCUGGUGGAUCCGCGAAUUCUGCUGUAUAUCUC", "note": "[A5U A28G C37U A56G U60C]", "self-cleavage": 0.13},
      {"variant": "UAACUGGGGGCCACAGCAGAAGCGUUCACGUCGCUGCCCCUGUCAGAUUCUGGUGAAUCUCCGAAUUCUGCUGUACAUCUC", "note": "[A5U A35U G61C U76C]", "self-cleavage": 0.22},
      {"variant": "UAACUGGGGGCCACAGCAGAAGCGUUCACGUCGCUGCCCCUGUCAGAUUCAGGUGAAUCUGCGAACUCAGCUGUAUAUCUC", "note": "[A5U A35U U51A U66C U69A]", "self-cleavage": 0.29},
      {"variant": "UAACUGGGGGCCACAGCAGAAGCGUUCACGUCGCAGCCCCUGUCAGGUUCUGGUGAAUCCGCGAACUCUGCUGUAUAUCUC", "note": "[A5U A47G U60C U66C]", "self-cleavage": 0.15},
      {"variant": "UAACUGGGGGCCACAGCAGAAGCGUUCACGUCGCUGCCCCUGUCAGAUUCUGGUGAAUCUGCGAGUACUGCUGUACGUCUC", "note": "[A5U A35U A65G U67A U76C A77G]", "self-cleavage": 0.09},
      {"variant": "UAACUGGGGGCCACAGCAGAUGCGUUCACGUCGCAGCCCCUGACAGAUUCUGGUGAAUCUGCGAGUUCUGCUGUAUAUCUC", "note": "[A5U A21U U43A A65G]", "self-cleavage": 0.35},
      {"variant": "UAACUGGGGGCCACAGCAGAAGCGUUCACGUCGCAGCCCCUGUCAGAUUCUGGUGAGCCUGCGAGUUCUGCUGUAUACCUC", "note": "[A5U A57G U58C A65G U78C]", "self-cleavage": 0.29},
      {"variant": "UAACUGGGGGCCACAGCAGAAGCGUUCUCGUCGCAGCCCCUGUCAGAUACCGGUGAAUCUGCGAAUUCUGCUGUAUACCUC", "note": "[A5U A28U U49A U51C U78C]", "self-cleavage": 0.5},
      {"variant": "UAACUGGGGGCCACAGCAGAAGCGUUCUCGUCGCAGCCCCUGUCAGAUUCUGGUGAAUCCGCGGAUUCAGCUGAAUAUCUC", "note": "[A5U A28U U60C A64G U69A U74A]", "self-cleavage": 0.3},
      {"variant": "UAACUGGGGGCCACAGCAGAAGCGUUCGCGUCGCAGCUCCUGUCAGAUUCUGGAGAGUCUGCGAAUUCUGCUGUAUAUCCC", "note": "[A5U A28G C38U U54A A57G U80C]", "self-cleavage": 0.09},
      {"variant": "UAACUGGGGGCCACAGCAGAAGCGUUCACGUCGCUGCCCCUGUCAGAUUCCGGUGAAUCUGCGAAUUCUGCUGUAUAUCUC", "note": "[A5U A35U U51C]", "self-cleavage": 0.62},
      {"variant": "UAACUGGGGGCCACAGCAGAAGCGUUCGCGUCGCAGCCCCUGUCGGAUUCAGGUGAAUCUGCGAAUUCUGCUGUAUAUCCC", "note": "[A5U A28G A45G U51A U80C]", "self-cleavage": 0.44},
      {"variant": "UAACUGGGGGGCUCAGCAGAAGCAUUCACGUCGCAGCCCCUGUCAGAUUCGGGUGAAUCUGCGAAUUCUGCUGUAUAACUC", "note": "[A5U C11G A13U G24A U51G U78A]", "self-cleavage": 0.08},
      {"variant": "UAACUGGGGGCCACAGCAGAAGCGUUCACGUCGCAGCCCCUGUCGGAUCCUGGUGAAUCUGCGAAUUCUGCUGAAUAUCUC", "note": "[A5U A45G U49C U74A]", "self-cleavage": 0.62},
      {"variant": "UAACUGGGGGCCACAGCAGAAGCGUUCACGUCGCAGCCCCUGUCAGAUUCUGGUGAGUCUGCGAUUUCUGCUGUAUAUCUC", "note": "[A5U A57G A65U]", "self-cleavage": 0.19},
      {"variant": "UAACUGGGGGCCACAGCAGAAGCGUUCACGUCGCGGCCCCUGUCAGAUUCUGGUGAAUCUGCGGAUUCUGCUGUAUAUCUC", "note": "[A5U A35G A64G]", "self-cleavage": 1.25},
      {"variant": "UAACUGGGGGCCACAGCAGAAGCGUUCGCGUCGCAGCCCUUGACAGAUUCUGGUGAGUCUGCGAAUUCUGCUAUGUAUCUC", "note": "[A5U A28G C40U U43A A57G G73A A75G]", "self-cleavage": 0.39},
      {"variant": "UAACUGGGGGCCACAGCAGAAGCGUUCACGUCGCAGCCCCUGUCAGAUUCUGGUGAUUCUGCGAAUUCAGCUGUAUAUCUC", "note": "[A5U A57U U69A]", "self-cleavage": 0.22},
      {"variant": "UAACUGGGGGCCACAGCAGAAGCGUUCACGUCGCGGCCCCUGUCAGAUCCUGGUGAAUCUGCGAAUUCUGCUGUAUAUCAC", "note": "[A5U A35G U49C U80A]", "self-cleavage": 1.14},
      {"variant": "UAACUGGGGGCCACAGCAGAAGCGUUCACGUCGCUGCCCCUGUCGGACUCUGGUGAAUCUGCGAAUCCUGCUGUAUAUCUC", "note": "[A5U A35U A45G U48C U67C]", "self-cleavage": 0.12},
      {"variant": "UAACUGGGGGCCACAGCAGAAGCGUUCACGUCGCUGCCCCUGUCAGAUACUGGUGAAUCUGCGAAUUCUGCUGUAUACCUC", "note": "[A5U A35U U49A U78C]", "self-cleavage": 0.32},
      {"variant": "UAACUGGGGGCCACAGCAGAAGCGUUCGCGUCGCUGCCCCUGUCAGAUUCAGGUGAAUCUGCGAAUUCUGCUGUAUAUCUC", "note": "[A5U A28G A35U U51A]", "self-cleavage": 0.2},
      {"variant": "UAACUGGGGGCCACAGCAGAAGCGUUCACGUCGCGGCCCCUGUCAGAUUCUGGUGAAUCUGCGAGUUCUGCUGUAUAUCUC", "note": "[A5U A35G A65G]", "self-cleavage": 1.14},
      {"variant": "UAACUGGGGGCCACAGCAGAAGCGUUCACGUCGCGGCCCCUGUCAGCUUCUGGUGAAUCUGCGAAUUCUGCUGUAUAUCUC", "note": "[A5U A35G A47C]", "self-cleavage": 1.21}
    ]}
  ]
}
